The list shows a part of the results. The full chains were built here from the parent and the listed change. Inactive controls read about 0.05.
B1: TEV protease; numbered along this chain (parent)
chain: MGESLFKGPRDYNPISSSICHLTNESDGHTTSLYGIGFGPFIITNKHLFRRNNGTLVVQSLHGVFKVKDTTTLQQHLVDGRDMIIIRMPKDFPPFPQKLKFREPQREERICLVTTNFQTKSMSSMVSDTSCTFPSGDGIFWKHWIQTKDGQCGSPLVSTRDGFIVGIHSASNFTNTNNYFTSVPKNFMELLTNQEAQQWVSGWRLNADSVLWGGHKVFMVKPEEPFQPVKEATQL

Variants of: B1
Test: raw area under fraction-flipped curve 0-4 h after induction (AUC4h, not background-subtracted), DNA-recorder readout of cleavage of the substrate (dimensionless); higher = more cleavage of the substrate by the protease variant
Details: temperature: 34 °C; time window: 0-4 h after rhamnose induction
Experimental: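 In vivo DNA recorder in E. coli TOP10(DE3) ΔrhaA at 34 °C. Each TEVp single-site mutant (parent TEVp 0) is paired with a single-site variant of the 7-mer TEVs (canonical ENLYFQ|S). The substrate sits between flexible linkers in a Bxb1-sfGFP-TEVs-SsrA fusion, so cleavage stabilises Bxb1 and speeds flipping of a recombination array, read by NGS. The value is the raw area under the fraction-flipped curve over 0-4 h after rhamnose induction (AUC4h), with ≥20 reads per time point. It is not background-subtracted; inactive controls average about 0.047.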
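Note: Bxb1 expression induced with 0.2% (w/v) L-rhamnose at OD600 near 0.5, cultures sampled hourly, flipped fraction per protease–substrate barcode pair counted by paired-end Illumina sequencing.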

| Variant | area with substrate ANLYFQS | area with substrate DNLYFQS | area with substrate FNLYFQS | area with substrate HNLYFQS | area with substrate NNLYFQS | area with substrate PNLYFQS | area with substrate RNLYFQS | area with substrate CNLYFQS | area with substrate GNLYFQS | area with substrate INLYFQS | area with substrate KNLYFQS | area with substrate LNLYFQS | area with substrate MNLYFQS | area with substrate QNLYFQS | area with substrate SNLYFQS | area with substrate TNLYFQS | area with substrate WNLYFQS | area with substrate VNLYFQS | area with substrate YNLYFQS |
| --- | --- | --- | --- | --- | --- | --- | --- | --- | --- | --- | --- | --- | --- | --- | --- | --- | --- | --- | --- |
| K148I | 0.055 | 0.0642 | 0.0708 | 0.0634 | 0.0582 | 0.067 | 0.0605 | – | – | – | – | – | – | – | – | – | – | – | – |
| K148P | 0.0379 | – | 0.0708 | – | – | 0.0635 | – | 0.059 | 0.0707 | 0.0303 | 0.0623 | 0.0693 | 0.0448 | 0.0446 | 0.0565 | 0.0396 | 0.0377 | – | – |
| D149K | 0.0684 | – | 0.06 | 0.0488 | 0.0704 | 0.0542 | 0.0301 | 0.0578 | – | 0.0609 | 0.0511 | 0.0653 | – | 0.0598 | 0.0655 | – | 0.0675 | 0.0759 | 0.0595 |
| D149N | 0.0487 | 0.0612 | 0.0584 | 0.0901 | 0.0582 | 0.0716 | – | – | 0.0935 | 0.0855 | – | 0.0602 | – | 0.0556 | – | 0.0682 | 0.0558 | 0.0593 | 0.0535 |
| Q151C | 0.0626 | – | – | 0.0714 | 0.068 | 0.0756 | 0.0695 | 0.0581 | 0.0629 | 0.0727 | – | – | – | 0.0549 | 0.0048 | 0.0449 | 0.0627 | – | – |
| Q151I | 0.0759 | 0.0868 | 0.0597 | – | – | 0.0806 | 0.0456 | – | 0.0563 | 0.0669 | – | 0.0647 | – | 0.0536 | 0.0699 | 0.0714 | 0.055 | – | 0.0603 |
| Q151L | 0.0625 | – | 0.0385 | 0.0623 | – | 0.0616 | – | 0.0482 | – | – | – | – | – | – | – | 0.059 | 0.0669 | 0.0411 | – |
| Q151P | 0.0561 | 0.0579 | – | – | – | 0.0608 | – | – | – | 0.054 | – | 0.0587 | – | – | 0.0525 | 0.0531 | 0.038 | – | 0.0562 |
| Q151W | 0.0475 | – | 0.0582 | 0.0624 | 0.0536 | 0.0654 | – | 0.0586 | 0.0605 | 0.059 | 0.068 | 0.0583 | – | – | 0.0557 | 0.0628 | 0.063 | – | 0.0549 |
| S154G | 0.0668 | – | 0.0571 | 0.0657 | – | 0.0698 | – | 0.0583 | 0.0545 | – | – | – | 0.058 | – | – | 0.0559 | 0.0579 | 0.0443 | – |
| S154P | 0.0543 | – | 0.0546 | – | 0.057 | – | – | 0.0638 | – | 0.0398 | 0.0772 | 0.0602 | – | – | 0.0608 | 0.0634 | 0.0629 | – | 0.0641 |
| P155C | 0.0632 | – | 0.0652 | 0.069 | 0.0769 | 0.0611 | – | 0.0496 | – | 0.059 | 0.0611 | 0.0712 | 0.0569 | 0.0743 | 0.0197 | 0.0638 | 0.0584 | – | – |
| P155Y | 0.0486 | – | 0.0543 | 0.0591 | – | 0.0567 | – | 0.0693 | 0.0474 | 0.0374 | 0.058 | 0.0524 | 0.0422 | – | 0.0465 | 0.037 | 0.0527 | 0.0548 | 0.0391 |
| L156D | 0.0383 | – | – | 0.0475 | 0.0561 | – | – | 0.0453 | 0.0455 | 0.0568 | 0.0571 | 0.0586 | 0.0523 | – | – | 0.0533 | 0.0543 | 0.0576 | 0.0391 |
| L156I | 0.0503 | 0.0699 | – | 0.051 | 0.0606 | 0.0846 | 0.0586 | – | 0.0595 | – | – | 0.058 | – | – | 0.0575 | 0.0763 | 0.0647 | 0.0772 | 0.0651 |
| L156M | 0.0584 | 0.0903 | – | 0.0695 | 0.0582 | – | – | – | 0.0836 | 0.0654 | 0.0716 | 0.0628 | 0.0266 | – | – | 0.0685 | 0.0604 | 0.0615 | 0.0686 |
| L156V | 0.0958 | 0.0626 | 0.058 | 0.0402 | 0.0602 | 0.0795 | – | – | 0.0636 | 0.0649 | 0.069 | 0.0631 | 0.0711 | – | 0.0603 | 0.0651 | 0.061 | 0.0722 | 0.0641 |
| T159L | 0.0639 | – | 0.0635 | 0.115 | 0.0704 | – | 0.0649 | 0.0764 | 0.0854 | 0.0525 | – | 0.0705 | 0.0507 | – | 0.0469 | – | 0.0648 | – | 0.0452 |
| R160H | 0.0766 | – | 0.059 | – | – | 0.0685 | – | – | 0.0716 | – | 0.0586 | 0.0983 | 0.0445 | – | 0.0648 | – | – | 0.0748 | – |
| D161H | 0.0582 | – | – | 0.0436 | 0.0536 | 0.0653 | – | 0.0643 | 0.0727 | – | 0.0512 | 0.0613 | 0.055 | – | 0.0755 | 0.05 | – | 0.0786 | – |
| D161T | 0.0257 | 0.113 | – | 0.065 | 0.0626 | 0.092 | – | – | 0.0683 | 0.0715 | 0.0704 | 0.0654 | – | – | 0.066 | 0.0541 | 0.0538 | – | – |
| F163L | 0.0533 | – | – | 0.0621 | – | 0.0728 | – | 0.0678 | 0.047 | 0.0642 | 0.0716 | – | – | – | 0.0852 | 0.0776 | 0.0811 | – | – |
| I164P | 0.0411 | – | – | 0.0497 | 0.0524 | 0.0564 | – | 0.0576 | – | 0.0597 | 0.0575 | 0.0506 | 0.0454 | 0.0678 | – | 0.0524 | 0.045 | – | 0.0414 |
| I164T | 0.061 | – | 0.0547 | 0.0579 | – | 0.0517 | – | 0.0561 | 0.0434 | 0.0539 | 0.0572 | 0.0589 | 0.0594 | – | 0.0576 | 0.06 | 0.0533 | – | 0.0506 |
| I164W | 0.0726 | – | 0.07 | 0.0347 | 0.0373 | 0.0245 | – | 0.0541 | – | 0.0489 | 0.0555 | – | – | 0.0547 | – | – | 0.0551 | – | 0.0401 |
| I164Y | 0.0525 | 0.0652 | 0.0541 | 0.0519 | – | 0.0594 | 0.0484 | – | 0.0541 | 0.064 | 0.0635 | 0.0542 | – | – | – | 0.0515 | 0.0487 | 0.0499 | 0.0496 |
| V165F | 0.0538 | – | – | 0.0497 | 0.0482 | – | – | 0.0271 | – | 0.0326 | 0.0563 | – | 0.0522 | 0.0553 | 0.0658 | 0.0445 | 0.0407 | – | 0.0457 |
| V165S | 0.0664 | 0.0491 | 0.0638 | 0.0482 | – | 0.0536 | – | – | – | – | 0.0794 | 0.0537 | 0.0546 | – | – | 0.053 | – | 0.0374 | – |

Source: the supplement of paper PMC12217912
